From the supplement of paper PMC6531468
The other results are listed elsewhere or left out. Read counts after selection give these values, which scatter widely. Scores sum up all selected molecules that hold the word; the word was not tested alone.

tested on: IMP3 KH1-2; assay: 6-mer SELEX enrichment z-score vs GST control; IMP3 is the RNA-binding protein IGF2BP3; higher = more enriched by binding; details: construct: KH1-2 (164-376); SELEX round: R4
Method: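 SELEX-seq with GST-tagged IMP3 KH1-2 (Pro164-Phe376) and an N40 RNA pool, round 4 (stringent 300/600 mM KCl washes). 6-mer z-score of sequence-tag enrichment normalised to the corresponding GST SELEX round; RNA k-mers written as DNA (T for U).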

Chain of IMP3 KH1-2 (chain, as listed by the source): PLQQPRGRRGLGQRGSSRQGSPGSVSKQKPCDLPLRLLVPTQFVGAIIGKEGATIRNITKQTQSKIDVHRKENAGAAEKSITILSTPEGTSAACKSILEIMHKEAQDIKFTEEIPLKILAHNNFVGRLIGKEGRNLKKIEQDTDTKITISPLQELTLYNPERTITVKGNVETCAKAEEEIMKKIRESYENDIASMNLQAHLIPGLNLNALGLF

| Sequence | 6-mer SELEX enrichment z-score |
| --- | --- |
| AACACT | 1.29 |
| GCACCG | 0.31 |
| TATTAT | 1.15 |
| TACCAA | -1.04 |
| CCATAG | 0.209 |
| ATGTAA | 0.541 |
| TTCCAT | 1.19 |
| ACTTTT | 1.01 |
| AAAATT | 0.75 |
| ACCAGT | 0.04 |
| TCTGAT | 0.46 |
| TTCACA | 2.27 |
| CTATAC | 0.799 |
| GGTTTG | 0.031 |
| AGCGGA | -0.982 |
| TGCAGG | 0.924 |
| ATTCTG | 0.58 |
| CCAAAC | -2.35 |
| GTGTCG | -0.293 |
| GAGAAG | 0.385 |

| Sequence | 6-mer SELEX enrichment z-score |
| --- | --- |
| TTTGTG | -0.026 |
| ATCTTG | -0.487 |
| GTAGCT | -0.576 |
| CACTAG | 0.066 |
| GGTGAC | -0.213 |
| GCCAGC | 0.101 |
| CTAATC | 0.028 |
| TCCTTG | -0.148 |
| ACCGGT | -0.362 |
| GAATGG | 0.521 |
| ATTGGG | 0.006 |
| CCGACT | -0.997 |
| TCGGGT | -0.172 |
| TGCACT | 0.503 |
| GAAAAA | -0.681 |
| AGGGTG | 0.222 |
| ACCCAT | -0.841 |
| CAAACC | -1.58 |
| CGTACG | -1.41 |

tested on: IMP3 KH3-4; assay: as above; details: construct: KH3-4 (377-579); SELEX round: R4
Sequence (chain, as listed by the source): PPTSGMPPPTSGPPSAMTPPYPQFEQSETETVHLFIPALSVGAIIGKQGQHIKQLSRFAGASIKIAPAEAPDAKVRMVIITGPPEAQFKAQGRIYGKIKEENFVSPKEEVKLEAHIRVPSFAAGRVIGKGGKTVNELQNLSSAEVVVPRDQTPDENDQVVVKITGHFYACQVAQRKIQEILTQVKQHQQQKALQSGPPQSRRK
Method: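 SELEX-seq with GST-tagged IMP3 KH3-4 (Pro377-Lys579) and an N40 RNA pool, round 4. 6-mer z-score of sequence-tag enrichment normalised to the corresponding GST SELEX round; RNA k-mers written as DNA (T for U).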

| Sequence | 6-mer SELEX enrichment z-score |
| --- | --- |
| AACACT | 0.679 |
| GCACCG | -0.472 |
| TATTAT | 1.84 |
| TACCAA | -1.33 |
| CCATAG | -0.018 |
| ATGTAA | 1.46 |
| TTCCAT | 0.805 |
| ACTTTT | 1.17 |
| AAAATT | 1.78 |
| ACCAGT | -0.131 |
| TCTGAT | 0.436 |
| TTCACA | 1.21 |
| CTATAC | 0.608 |
| GGTTTG | 0.222 |
| AGCGGA | -0.731 |
| TGCAGG | 0.788 |
| ATTCTG | 0.462 |
| CCAAAC | -3.19 |
| GTGTCG | -0.223 |
| GAGAAG | 0.717 |

| Sequence | 6-mer SELEX enrichment z-score |
| --- | --- |
| TTTGTG | 0.283 |
| ATCTTG | -0.454 |
| GTAGCT | -0.489 |
| CACTAG | 0.066 |
| GGTGAC | -0.195 |
| GCCAGC | -0.269 |
| CTAATC | -0.082 |
| TCCTTG | -0.253 |
| ACCGGT | -0.35 |
| GAATGG | 0.898 |
| ATTGGG | 0.192 |
| CCGACT | -1.32 |
| TCGGGT | -0.006 |
| TGCACT | 0.33 |
| GAAAAA | 0.948 |
| AGGGTG | 0.302 |
| ACCCAT | -1.38 |
| CAAACC | -2.74 |
| CGTACG | -1.44 |
